# Source: PubChem BioAssay (NCI)
# “And” between values parts separate entries of the source, which are not always exact repeats. Equal values may be shown once.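 Step 1: Grow cells in 96-well plates. Step 2: Expose to compound for 48 hours at 5 concentrations. Step 3: Interpolate endpoints linearly; if unreached, use highest concentration. The concentration for 50% growth inhibition is given as GI50. TGI: concentration producing complete growth inhibition.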
# Tested on: NCI-H322M lung
# Test: growth of human tumour cells (NCI), 48 h
SMILES,TGI,GI50
CC1(C)C2CCC3(OCCO3)C1C1OC12 (configuration not stated),> 100 µM,–
CN(C)CC(CO)(CN(C)C)CN(C)C,> 100 µM,–
Cc1ccc(/C(=C/C=C(C#N)C#N)Sc2cc(Cl)ccc2Cl)cc1,37.9 µM,–
c1ccc2sc(C3(N4CCCCC4)CCCCCC3)cc2c1,49.6 µM,–
C=C1Oc2nc3ccccc3c(=O)n2C1(C)C,> 100 µM,–
CC(=O)NCCc1c[nH]c2ccc(Cl)cc12,> 100 µM,–
CCOC(=O)C1=C(C)NC2SC(=O)/C(=C\c3ccccc3)N2C1c1ccccc1 (configuration not stated),> 100 µM,45.1 µM
O=C1CN2C(Cl)(Cl)C2(c2ccccc2)c2cc(Cl)ccc2N1CC(F)(F)F (configuration not stated),92 µM,–
C[C@H]1CC[C@@H]2[C@@H](C)[C@H]3[C@H](C[C@H]4[C@@H]5CC=C6C[C@@H](O)CC[C@]6(C)[C@H]5C[C@H](O)[C@]34C)N2C1,> 100 µM,–
CC1C/C(=N\N(C)C)C(C#N)(C#N)C1(C#N)C#N (configuration not stated),> 71.4 µM,–
O=C(Nc1ccc(Cl)cc1)/C(Cc1cccc[n+]1[O-])=N\Nc1ccc([N+](=O)[O-])cc1[N+](=O)[O-],> 100 µM,–
Cc1nc2ccccc2c(=O)n1NC(=O)c1ccccc1O,> 100 µM,–
Cc1ccc2c(c1)[nH]c(=S)n2C=C1C(=O)CC(C)(C)CC1=O,> 100 µM,–
CC[C@@H](C(=O)[C@@H](C)[C@@H](O)[C@H](C)[C@@H]1O[C@@H]([C@@H](CC)C(=O)O)CC[C@@H]1C)[C@H]1OC2(C=C[C@@H](O)[C@]3(CC[C@@](C)([C@H]4CC[C@](O)(CC)[C@H](C)O4)O3)O2)[C@H](C)C[C@@H]1C (some centres not stated),15.1 µM,2 µM
COc1ccc(-c2nn(-c3cccc(NC(=O)Nc4cc(C(F)(F)F)cc(C(F)(F)F)c4)c3)cc2-c2ccncc2)cc1Cl,10.3 µM,1.87 µM
COC(=O)c1ccc([N+](=O)[O-])c(O)c1,> 100 µM,–
COc1ccc2c(=O)c3cc([N+](=O)[O-])ccc3n(C)c2c1,> 100 µM,–
COc1ccc(/C=C/c2cc(N3CCOCC3)c3cc(F)c(F)cc3n2)cc1OC,16.7 µM,0.576 µM
Cc1ccc(S(=O)(=O)Oc2ccc(OS(=O)(=O)c3ccc(C)cc3)c3c2C(=O)c2ccccc2C3=O)cc1,> 100 µM,–
CC(/C=C/c1ccc([N+](=O)[O-])o1)=N/N1CC(CN2CCOCC2)OC1=O (configuration not stated),> 100 µM,–
O=C1c2ccccc2C(=O)N1CCCCCCNOCCCN1C(=O)c2ccccc2C1=O,> 100 µM,–
COc1cccc(NC(=O)CC(=O)N2NC(C)C(N=Nc3cccc(C(=O)O)c3)C2=O)c1 (configuration not stated),> 100 µM,–
O=P1(Oc2ccc(Cl)cc2)OCCS1 (configuration not stated),> 100 µM,–
CCN(CC)Cc1nc(C2CCC([N+](=O)[O-])O2)no1 (configuration not stated),66.9 µM,–
CC(C)(C)[Si](C)(C)O/N=C\c1ccc(O[Si](C)(C)C(C)(C)C)cc1,> 100 µM,–

SMILES,TGI,GI50
CC12CC[C@H](O)C(C)(C)[C@H]1CC[C@](C)(O)C2COc1ccc2ccc(=O)oc2c1 (some centres not stated),> 100 µM,–
O=[N+]([O-])c1cccc2nc3ccccc3c(NCCCN3CCOCC3)c12,0.0979 µM,–
COc1cc([C@@H]2c3cc4c(cc3[C@H](O)[C@H]3COC(=O)[C@H]23)OCO4)cc(OC)c1OC,50 µM and > 100 µM,–
O=c1c2cc(Br)cc(Br)c2[nH]c(=S)n1-c1ccccc1,> 100 µM,–
COc1ccc(-n2c(C)nc3ccc(NC4OCC(O)C(O)C4O)cc3c2=O)cc1 (configuration not stated),> 100 µM,–
CCN1CC2=C(NC(=S)NC2c2cc(OC)c(OC)c(OC)c2)/C(=C/c2cc(OC)c(OC)c(OC)c2)C1 (configuration not stated),> 100 µM,–
CC1OC(OC2C(O)COC(OC3C(C)OC(OC4C(OC(=O)[C@]56CCC(C)(C)C[C@@H]5C5=CCC7[C@@]8(C)C[C@H](O)[C@H](OC9OC(CO)C(O)C(OC%10OC(CO)C(O)C(O)C%10O)C9O)[C@@](C)(CO)[C@@H]8CC[C@@]7(C)[C@]5(C)CC6)OCC(O)C4O)C(O)C3OC3OCC(O)C(O)C3O)C2O)C(O)C(O)C1O (some centres not stated),15.7 µM,–
CCOC(=O)c1cccc([N+](=O)[O-])c1N,> 100 µM,–
COc1cc2c3c(n(C)c(=O)c2cc1OC)-c1cc2c(cc1/C3=C\CCCBr)OCO2,> 100 µM,> 75.7 µM
C=C1C(=O)O[C@@H]2C[C@@H]1CC[C@@]1(C)O[C@@H]1CC[C@@]1(C)O[C@@H]1CC[C@@]2(C)O,> 100 µM,48.1 µM
N#CC(C#N)=CSc1ccccc1,> 100 µM,–
CC1=CCC[C@@H]2[C@@](C)(Cc3cc(O)ccc3O)[C@H](C)CC[C@@]12C,20.9 µM,–
CC(C)(C)OC(=O)NC(Cc1cnc[nH]1)C(=O)N1CCCC1C(N)=O (configuration not stated),> 100 µM,–
CC(=O)OC1CC2(c3ccccc3)C(=O)c3ccccc3N2O1 (configuration not stated),> 100 µM,–
COc1cc2nc(N3CCN(C(=O)c4ccco4)CC3)nc(N)c2cc1OC,36.9 µM,–
CNC(C)C(=O)N[C@H](C(=O)N1CCC[C@@H]1CN(CCc1ccccc1)C(=O)C(F)(F)F)[C@H](C)OCC#CC#CCO[C@H](C)[C@H](NC(=O)[C@H](C)NC)C(=O)N1CCC[C@H]1CN(CCc1ccccc1)C(=O)C(F)(F)F (some centres not stated),3.79 µM,2.02 µM
c1ccc2c3c([nH]c2c1)C1c2[nH]c4ccccc4c2CCN1CC3,8.9 µM,–
CN(c1ccccc1)C1C(=O)N(c2ccccc2)C1/C=C/c1ccccc1 (configuration not stated),> 100 µM,–
COc1ccc(/C=N/NC(=O)NCCCN(C)C)cc1,> 100 µM,–
COc1ccc2c(c1)nc1n2C(c2c(F)cccc2Cl)SC1 (configuration not stated),> 81.3 µM,–
CC(C)OP(=O)(OC(C)C)/C(=N/N)NNc1ccc([N+](=O)[O-])cc1,> 100 µM,–
CC1(C)CN=C(Nc2ccc(Cl)cc2)S1,> 100 µM,–
CCCN(CCCCN1C(=O)c2ccccc2C1=O)CC1COc2ccccc2O1 (configuration not stated),> 100 µM,–
Nc1ncnc2c1ncn2C1CCC(CO)O1 (configuration not stated),> 100 µM,–
C=C(C)[C@@]1(O)CCC[C@H]1NC(=O)OC(C)(C)C,> 100 µM,–
